In all, about 310,000 compounds went through this assay and about 14,000 (4.5%) showed an effect of 50% or more. Effects have a minus sign here. The list shows a part of the results.
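Also: peak tail current of the secondary pulse compared with the same well before compound.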

Sequence of human ether-à-go-go-related gene (hERG) potassium channel (Q12809 whole entry, looked up): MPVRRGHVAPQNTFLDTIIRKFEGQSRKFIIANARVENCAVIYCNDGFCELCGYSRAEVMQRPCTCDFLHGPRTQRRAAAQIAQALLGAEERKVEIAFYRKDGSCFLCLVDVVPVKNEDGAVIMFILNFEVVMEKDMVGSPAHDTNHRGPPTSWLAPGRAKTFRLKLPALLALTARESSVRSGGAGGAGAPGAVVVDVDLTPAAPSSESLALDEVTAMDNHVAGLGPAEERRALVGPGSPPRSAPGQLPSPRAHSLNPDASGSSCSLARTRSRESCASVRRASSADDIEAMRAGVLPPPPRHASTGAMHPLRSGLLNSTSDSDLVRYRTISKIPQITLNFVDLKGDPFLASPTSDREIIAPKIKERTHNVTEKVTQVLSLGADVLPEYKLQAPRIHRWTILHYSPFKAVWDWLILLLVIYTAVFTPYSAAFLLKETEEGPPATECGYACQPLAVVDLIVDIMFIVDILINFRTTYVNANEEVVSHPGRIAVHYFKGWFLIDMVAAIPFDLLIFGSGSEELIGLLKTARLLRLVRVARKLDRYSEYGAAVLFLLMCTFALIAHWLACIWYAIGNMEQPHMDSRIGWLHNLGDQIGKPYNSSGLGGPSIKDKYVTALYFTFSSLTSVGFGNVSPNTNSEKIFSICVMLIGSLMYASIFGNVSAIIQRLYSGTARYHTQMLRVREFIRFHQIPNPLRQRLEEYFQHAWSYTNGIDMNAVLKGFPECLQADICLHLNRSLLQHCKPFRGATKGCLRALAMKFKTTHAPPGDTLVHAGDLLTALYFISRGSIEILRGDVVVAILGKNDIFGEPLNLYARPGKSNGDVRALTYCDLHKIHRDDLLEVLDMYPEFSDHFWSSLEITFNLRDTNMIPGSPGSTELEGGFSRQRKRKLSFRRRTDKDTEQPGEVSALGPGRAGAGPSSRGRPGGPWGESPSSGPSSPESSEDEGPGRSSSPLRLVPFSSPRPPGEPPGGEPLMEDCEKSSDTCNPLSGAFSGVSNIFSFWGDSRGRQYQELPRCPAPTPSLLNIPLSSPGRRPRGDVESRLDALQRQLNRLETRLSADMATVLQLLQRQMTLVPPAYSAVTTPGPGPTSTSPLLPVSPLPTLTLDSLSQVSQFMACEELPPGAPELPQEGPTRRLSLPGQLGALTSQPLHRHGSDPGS

This assay has as its target human ether-à-go-go-related gene (hERG) potassium channel (human, UniProt Q12809). In words: primary screen, population patch clamp on CHO cells stably expressing hERG.
Consider `CCOc1ccc(NC(=O)CN2C(=O)c3ccccc3C2=O)cc1`, for which the “hERG current change (%, negative = inhibition) at 10uM” value is recorded as 4.71%.
With `Cc1ccccc1N1CC(=O)Nc2c(oc3nc(-c4ccccc4)cc(C)c23)C1=O`, the “hERG current change (%, negative = inhibition) at 10uM” value is -0.593%.
Take `NC(=O)c1ccc(-c2ccccc2F)cc1`: the “hERG current change (%, negative = inhibition) at 10uM” value is listed as -7.68%.
Under `O=C(c1ccc2nc(-c3ccco3)c(-c3ccco3)nc2c1)N1CCN(c2ccccc2)CC1` stands -15.4%; under `Cc1ccc(S(=O)(=O)N2CCC(C(=O)O)CC2)cc1C(=O)O`, 9.33%; under `N#Cc1nc(Cc2ccccc2)oc1N1CCN(c2cccc(Cl)c2)CC1`, 20%.
`COc1cc2c(cc1OC)C(=O)NCC(C)(C)O2`: the “hERG current change (%, negative = inhibition) at 10uM” value is recorded as -6.92%.
As for `COC(=O)c1oc2ccc(Cl)cc2c1N`, the “hERG current change (%, negative = inhibition) at 10uM” value is listed as -5.27%.
Under `COc1ccccc1C(=O)NCCN1CCN(c2ccccc2)CC1.Cl` stands -12.2%; under `COCCCNC(=O)c1c(N)n(-c2cccc(S(N)(=O)=O)c2)c2nc3ccccc3nc12`, 17.2%.
Consider `COc1ccccc1CN(C)C(=O)c1cccc(S(=O)(=O)N2CCc3ccccc3C2)c1`, for which the “hERG current change (%, negative = inhibition) at 10uM” value is -4.08%.
On to `Cc1ccc(CN2CC(C(=O)N3CCN(S(=O)(=O)c4c(F)cccc4F)CC3)CC2=O)cc1` (centres unmarked), for which the “hERG current change (%, negative = inhibition) at 10uM” value was -2.83%.
Under `CCOC(=O)N1CCC(NC(=O)CC2C(=O)NCCN2Cc2ccc(C)cc2)CC1` (centres unmarked) stands -27%; under `O=C(CCS(=O)(=O)c1ccc(Br)s1)NC1CCCCCC1`, 10.4%; under `CCc1nc(Nc2ccc(O)cc2)c2oc3ccccc3c2n1.Cl`, -13.6%.
Take `CC(/C=C/c1ccc2c(c1)OCO2)=N\NC(=O)C(O)c1ccccc1` (centres unmarked): the “hERG current change (%, negative = inhibition) at 10uM” value was determined as 8.18%.
With `CCOC(=O)c1sc(=S)n(-c2cc(F)ccc2F)c1N`, the “hERG current change (%, negative = inhibition) at 10uM” value was determined as 10.1%.
Under `Cc1c(NC(=O)CN2C(=O)C(=O)c3ccccc32)c(=O)n(-c2ccccc2)n1C` stands 6.31%; under `Cc1cc(C(=O)CN2C(=O)NC3(CCCc4sccc43)C2=O)c(C)n1-c1ccccc1` (centres unmarked), 11.5%.
Under `O=C(Nn1cnc2ccccc2c1=O)c1ccc([N+](=O)[O-])cc1` stands 7.84%.
Take `COc1ccc(C(=O)/C=C/c2cn(CN3CCN(C)CC3)c3ccccc23)cc1`: the “hERG current change (%, negative = inhibition) at 10uM” value is given as -30.4%.
As for `CCC(C)(C)NC(=O)CN(C(=O)CCC(=O)Nc1nccs1)c1ccc(C)cc1`, the “hERG current change (%, negative = inhibition) at 10uM” value is -1.36%.
On to `Cc1cc(OCC(=O)N2CCN(c3ccc(F)cc3)CC2)c2c(C)cc(=O)oc2c1`, for which the “hERG current change (%, negative = inhibition) at 10uM” value was 10.7%.
Consider `NC(=O)Cc1ccc(C(=O)c2ccc(Cl)cc2Cl)s1`, for which the “hERG current change (%, negative = inhibition) at 10uM” value was 1.46%.
On to `Cc1ccc(CNS(=O)(=O)c2ccc3c(c2)CCN3C(=O)C2CCC2)cc1`, for which the “hERG current change (%, negative = inhibition) at 10uM” value was 4.29%.
Regarding `COC(=O)c1c(NC(=O)CC2SC(N)=NC2=O)sc(C)c1C` (centres unmarked), the “hERG current change (%, negative = inhibition) at 10uM” value is reported as 10.5%.
Under `COC(=O)CCC(=O)OC1(C)C(=O)C=C2C=C(C3CC3)N(c3ccc(CO)cc3)C=C2C1=O` (centres unmarked) stands 22.6%; under `CC(=O)n1cc(C(C[N+](=O)[O-])SCCN)c2ccccc21.Cl` (centres unmarked), -9.3%; under `C[C@H](NC(=O)OC(C)(C)C)C(=O)N/N=C/c1ccc2nccnc2c1`, 21.7%.
With `CC(C)c1ccc(-c2nc(N3CCCC3)nc3n[nH]c(N)c23)cc1`, the “hERG current change (%, negative = inhibition) at 10uM” value is -8.1%.
In the case of `COC(CNC(=O)c1cccc2c1C(=O)N(Cc1cccnc1)C2)OC`, the “hERG current change (%, negative = inhibition) at 10uM” value is -15.3%.
Under `CC1CCCN(C(=O)c2cc3c(-c4ccc(Cl)cc4)nn(C)c3s2)C1` (centres unmarked) stands 1.28%; under `CCOc1ccc(/C=N/NC(=O)CSc2ccccn2)cc1O`, -0.674%; under `Cc1ccccc1NS(=O)(=O)c1nnc(NC(=O)c2ccccc2F)s1`, 10.7%.
For the compound `Nc1ccc(-c2cnc[nH]2)cc1[N+](=O)[O-]`, the “hERG current change (%, negative = inhibition) at 10uM” value is given as -0.302%.
Consider `CC(=O)NCCc1nc2cc(NC(=O)c3ccc([N+](=O)[O-])cc3)ccc2n1C`, for which the “hERG current change (%, negative = inhibition) at 10uM” value worked out at 7.72%.
For `Cc1ccc(S(=O)(=O)N2CCC(=O)N(C(COCc3ccc(Cl)cc3Cl)Cc3ccccc3)CC2)cc1` (centres unmarked), the “hERG current change (%, negative = inhibition) at 10uM” value was found to be 7.9%.
For `CCO[C@@H]1OC(C(=O)N2CCN(Cc3ccccc3)CC2)=C[C@H](c2ccccc2)[C@H]1CCCO`, the “hERG current change (%, negative = inhibition) at 10uM” value is 0.741%.
As for `CCOC(=O)c1ccc(-c2ccc(/C=N/NC(=O)c3cncc(Br)c3)o2)cc1`, the “hERG current change (%, negative = inhibition) at 10uM” value is 0.672%.
Next, `COc1ccccc1CNC(=O)Cc1ccc(C)cc1`: -6.75%.
As for `CCCCn1c(N)c(N(CCOC)C(=O)c2cccc(S(=O)(=O)N3CCCCC3)c2)c(=O)[nH]c1=O`, the “hERG current change (%, negative = inhibition) at 10uM” value was 8.89%.
In the case of `CN1C(=O)CC(c2cn(Cc3ccccc3)c3ccccc23)C1=O` (centres unmarked), the “hERG current change (%, negative = inhibition) at 10uM” value is reported as -0.956%.
Turning to `COc1ccccc1C(NC(C)=O)c1cc(Cl)c2cccnc2c1O` (centres unmarked), the “hERG current change (%, negative = inhibition) at 10uM” value was found to be 7.78%.
Regarding `O=C(O)c1ccc(NC(=S)NC(=O)c2ccc3ccccc3c2)cc1`, the “hERG current change (%, negative = inhibition) at 10uM” value is -5.69%.
Consider `O=C(O)CC1(CC(=O)NCc2ccccn2)CCCCC1`, for which the “hERG current change (%, negative = inhibition) at 10uM” value stood at 4.78%.
As to `COC(=O)C1=C(C(=O)OC)[C@@H]2N(C)c3ccc(OC)cc3[C@@]23C[C@@H](C(=O)OC)N(C(=O)c2ccco2)C3=N1`, the “hERG current change (%, negative = inhibition) at 10uM” value is given as -50.6%.
Under `O=P(COc1ccccc1)(c1ccccc1)c1ccccc1` stands -13.5%; under `CC(C)c1cc(C(N)=O)c(NC(=O)c2cccc(COc3ccc(Br)cc3)c2)s1`, 21.9%; under `C/C=C/c1ccc(OCCN2C(=O)NC(C)(C)C2=O)c(OC)c1`, 6.58%.
In the case of `CNC(=O)NC(=O)C(C)OC(=O)c1cc2c(s1)CCCCC2` (centres unmarked), the “hERG current change (%, negative = inhibition) at 10uM” value was -7.89%.
With `C/C(=N/NC(=O)CNC(=O)C1COc2ccccc2O1)c1cccc(O)c1` (centres unmarked), the “hERG current change (%, negative = inhibition) at 10uM” value is given as -5.92%.
Under `CCOC(=O)c1cc(C#N)c(Oc2ccc(F)cc2)nc1-c1ccccc1` stands 12.9%; under `Cc1cc(OC(=O)c2ccc(C)c(C)c2)c([N+](=O)[O-])c(=O)[nH]1`, 21.6%; under `O=C(Nc1ccc(Br)cc1)c1ccc2c(c1)OCO2`, 14.5%.
For the compound `CNc1oc(-c2cccs2)nc1C#N`, the “hERG current change (%, negative = inhibition) at 10uM” value is listed as -1.58%.
`O=C(CNC(=O)[C@@H]1Cc2ccccc2CN1)NCc1ccco1`: the “hERG current change (%, negative = inhibition) at 10uM” value is 4.85%.
For the compound `CC(C)N1C(=O)/C(=C/C=C/c2ccco2)C(=O)N(Cc2ccco2)C1=O`, the “hERG current change (%, negative = inhibition) at 10uM” value was 8.31%.
Regarding `COc1cc(NC(=O)c2ccc3c(c2)C(=O)N(CCC(C)C)C3=O)c(C(=O)O)cc1OC`, the “hERG current change (%, negative = inhibition) at 10uM” value was 20.5%.
Next, `CC(C)Oc1cccc(C(=O)C2CCCN(C(=O)c3ccc4c(c3)OCO4)C2)c1` (centres unmarked): -26.9%.
As to `O=C(NCCCNC(=O)c1cnccn1)c1cccc(F)c1`, the “hERG current change (%, negative = inhibition) at 10uM” value worked out at 10.2%.
Consider `CCOc1ccc(C(=O)Nc2ccc3[nH]ncc3c2)cc1`, for which the “hERG current change (%, negative = inhibition) at 10uM” value came out at 24.1%.
Consider `CCOc1ccccc1NC(=O)Cn1c(=O)c(OCC)nc2cnccc21`, for which the “hERG current change (%, negative = inhibition) at 10uM” value is listed as 5.65%.
As for `Cc1cc(Cl)ccc1C(=O)C1CCCN(C2CCSCC2)C1` (centres unmarked), the “hERG current change (%, negative = inhibition) at 10uM” value is recorded as -74.3%.
Consider `Cn1c(N)c(C(=O)CSc2nc(C3CC3)n(-c3ccccc3)n2)c(=O)[nH]c1=O`, for which the “hERG current change (%, negative = inhibition) at 10uM” value is recorded as -3.17%.
Turning to `CCC1CCc2c(sc(NC(C)=O)c2C#N)C1` (centres unmarked), the “hERG current change (%, negative = inhibition) at 10uM” value was 1.72%.
`CCN(CC)S(=O)(=O)c1ccc(OC)c(NC(=O)CSc2cc(C)ccc2C)c1`: the “hERG current change (%, negative = inhibition) at 10uM” value is listed as -13.3%.
Turning to `CCOc1ccc(NC(=O)CN(c2ccc(OCC)cc2)S(=O)(=O)c2c(C)[nH]c(=O)[nH]c2=O)cc1`, the “hERG current change (%, negative = inhibition) at 10uM” value stood at 16.2%.
Under `Cc1nc(SCc2ccc(C(=O)O)cc2)c2c(C)c(C)sc2n1` stands -10.3%; under `Cc1nnc(SCC(=O)N(Cc2ccccc2)C(C)(C)C)[nH]c1=O`, 7.87%; under `Cn1c(=S)ccc2ccccc21`, 9.22%.
As for `CN(C)c1nc(Oc2ccc(=O)[nH]n2)nc(N2CCCCC2)n1`, the “hERG current change (%, negative = inhibition) at 10uM” value is listed as -0.603%.
Turning to `COC(=O)/C(=C\c1ccc2c(c1)c1ccccc1n2C)NC(=O)c1ccccc1`, the “hERG current change (%, negative = inhibition) at 10uM” value was -7.06%.
Consider `CC1C(=O)N(Cc2ccc(F)cc2)c2ccccc2N1C(=O)c1c(F)cccc1F` (centres unmarked), for which the “hERG current change (%, negative = inhibition) at 10uM” value was determined as 4.55%.
Turning to `CSc1n[nH]c(NCc2ccc(C)cc2)n1`, the “hERG current change (%, negative = inhibition) at 10uM” value amounted to 8.19%.
For the compound `O=C(NCCc1ccccc1)c1cccc(S(=O)(=O)NCc2ccccc2)c1`, the “hERG current change (%, negative = inhibition) at 10uM” value is listed as -47.7%.
Regarding `CCN(CC(=O)Nc1c(F)cccc1F)C(=O)c1ccc(N2CCCCC2)c([N+](=O)[O-])c1`, the “hERG current change (%, negative = inhibition) at 10uM” value is listed as -39.2%.
Turning to `CC(C)n1c(CNC(=O)c2ccccc2)nc2ccccc21`, the “hERG current change (%, negative = inhibition) at 10uM” value is recorded as -3.26%.
Regarding `COc1ccc(OCC#CCn2ccnc2)cc1.O=C(O)C(=O)O`, the “hERG current change (%, negative = inhibition) at 10uM” value amounted to 13.5%.
Next, `COc1ccc(OC)c(NC(=O)C(=O)NNC(=O)c2cccs2)c1`: 10.9%.
Under `COc1cccc(OCc2cc(C(=O)NCc3cnc4ccccn34)no2)c1` stands -23.2%.
Consider `Cc1noc(C)c1CSc1nnc(-c2cccnc2)n1C1CCCCC1C` (centres unmarked), for which the “hERG current change (%, negative = inhibition) at 10uM” value is on record as -20%.
`Cc1ccc(CSCC(=O)N(CCC(C)C)c2c(N)n(Cc3ccccc3)c(=O)[nH]c2=O)cc1`: the “hERG current change (%, negative = inhibition) at 10uM” value is -32.1%.
Under `CCOC(=O)c1cc(C)n(CCc2ccccc2)c1C` stands -3.8%; under `O=C(Nc1ccc(Br)cc1)c1cccc(N2C(=O)C3C4C=CC(C4)C3C2=O)c1` (centres unmarked), -48.8%; under `Cc1nc(C(=O)Nc2ccccc2)sc1C(=O)Nc1ccccc1`, -1.18%.
Take `Cc1cc(S(=O)(=O)c2ccc([N+](=O)[O-])cn2)ccc1Br`: the “hERG current change (%, negative = inhibition) at 10uM” value amounted to 15.9%.

Values taken from publication PMC4336329 (PLoS ONE, 2015).
